Test results reported in article PMC4336329 (PLoS ONE, 2015).
Hit rate of the full screen: of about 310,000 compounds, about 14,000 (4.5%) showed an effect of 50% or more. The effect is printed as a negative number. Some of the results follow.
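Further: peak tail current of the secondary pulse compared with the same well before compound.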

These compounds were tested against human ether-à-go-go-related gene (hERG) potassium channel (human, UniProt Q12809) (assay: primary screen, population patch clamp on CHO cells stably expressing hERG).
Chain of human ether-à-go-go-related gene (hERG) potassium channel (Q12809 whole entry, looked up): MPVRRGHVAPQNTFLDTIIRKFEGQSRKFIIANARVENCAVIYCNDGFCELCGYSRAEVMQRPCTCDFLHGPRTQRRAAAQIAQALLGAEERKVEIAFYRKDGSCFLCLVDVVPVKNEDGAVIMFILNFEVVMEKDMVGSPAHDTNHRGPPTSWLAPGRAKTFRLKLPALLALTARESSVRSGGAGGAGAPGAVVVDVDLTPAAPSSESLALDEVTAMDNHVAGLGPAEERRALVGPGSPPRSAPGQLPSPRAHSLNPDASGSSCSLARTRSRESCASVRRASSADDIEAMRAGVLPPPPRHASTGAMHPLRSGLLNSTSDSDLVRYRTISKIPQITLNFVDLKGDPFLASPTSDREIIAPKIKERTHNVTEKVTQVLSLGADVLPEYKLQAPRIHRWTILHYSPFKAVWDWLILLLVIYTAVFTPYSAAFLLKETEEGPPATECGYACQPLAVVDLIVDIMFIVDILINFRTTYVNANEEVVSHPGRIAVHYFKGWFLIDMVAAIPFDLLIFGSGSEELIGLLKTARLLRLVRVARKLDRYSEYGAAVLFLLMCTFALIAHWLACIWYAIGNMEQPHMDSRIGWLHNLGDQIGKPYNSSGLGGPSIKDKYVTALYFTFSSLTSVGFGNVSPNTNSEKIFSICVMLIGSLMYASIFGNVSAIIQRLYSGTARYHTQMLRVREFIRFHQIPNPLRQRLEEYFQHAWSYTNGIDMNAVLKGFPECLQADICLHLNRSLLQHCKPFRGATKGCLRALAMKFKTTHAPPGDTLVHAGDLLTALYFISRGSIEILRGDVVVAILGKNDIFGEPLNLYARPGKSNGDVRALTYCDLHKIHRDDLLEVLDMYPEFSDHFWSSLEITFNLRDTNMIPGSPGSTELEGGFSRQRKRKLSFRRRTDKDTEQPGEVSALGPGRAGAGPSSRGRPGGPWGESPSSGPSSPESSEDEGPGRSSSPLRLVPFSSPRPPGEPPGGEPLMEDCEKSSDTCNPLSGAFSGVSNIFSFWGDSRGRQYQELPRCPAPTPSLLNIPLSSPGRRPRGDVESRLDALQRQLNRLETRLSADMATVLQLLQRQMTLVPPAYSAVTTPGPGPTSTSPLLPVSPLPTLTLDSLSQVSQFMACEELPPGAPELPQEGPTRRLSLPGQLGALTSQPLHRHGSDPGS
`CCN(CC)CC.COc1ccc(OC)c(-n2c(=S)[nH]c3c(sc(=S)n3-c3ccccc3)c2=O)c1` was tested, and the “hERG current change (%, negative = inhibition) at 10uM” value was 15.1%.
`CN(CC(=O)N1CCN(c2ccccn2)CC1)S(=O)(=O)c1ccc2ccccc2c1` was tested, and the “hERG current change (%, negative = inhibition) at 10uM” value was -25.9%.
With `Nn1c(SCC(=O)Nc2ccc(F)c(F)c2)nnc1C1CCCCC1` the “hERG current change (%, negative = inhibition) at 10uM” value was 7.76%.
`C=CCn1c(SCC(=O)O)nnc1-c1ccc(C(C)(C)C)cc1` was tested, and the “hERG current change (%, negative = inhibition) at 10uM” value was 12.6%.
With `CCN1CCCC1CNC(=O)Cn1cnc2sc(C)c(S(=O)(=O)N3CCC(C)CC3)c2c1=O` (stereo not shown) the “hERG current change (%, negative = inhibition) at 10uM” value was -14.5%.
For `CC1CCCCN1C(=O)c1cc(Cl)ccc1[N+](=O)[O-]` (stereo not shown), the “hERG current change (%, negative = inhibition) at 10uM” value was 3.93%.
For `CC(=O)c1c(C)[nH]c(C(=O)OCC(=O)N2CCN(S(=O)(=O)c3ccc(C)cc3)CC2)c1C`, the “hERG current change (%, negative = inhibition) at 10uM” value was -19.8%.
For `Cc1[nH]n2c(=O)c3c(nc2c1-c1cccc2ccccc12)CCC3`, the “hERG current change (%, negative = inhibition) at 10uM” value was -18.2%.
With `CCCCc1c(C)nc(N2CCCC2)[nH]c1=O` the “hERG current change (%, negative = inhibition) at 10uM” value was -2.53%.
In the case of `CSc1cccc(NC(=O)CSc2nnc(C)s2)c1`, the “hERG current change (%, negative = inhibition) at 10uM” value is reported as -17.4%.
For `CN1CCCC(OC(=O)c2ccc(Cl)cc2)C1.Cl` (stereo not shown), the “hERG current change (%, negative = inhibition) at 10uM” value was -5.81%.
With `O=C(CSc1nc2ccccc2c(=O)n1-c1ccccc1F)Nc1ccc2c(c1)CCC2` the “hERG current change (%, negative = inhibition) at 10uM” value was 9.61%.
In the case of `COc1ccc(NS(=O)(=O)c2ccc3oc(SC(C)C(N)=O)nc3c2)cc1` (stereo not shown), the “hERG current change (%, negative = inhibition) at 10uM” value is reported as 8.02%.
`O=C(CN(C(=O)Cn1nnc(-c2ccc(F)cc2)n1)c1ccc(F)cc1)NC1CCCC1` was tested, and the “hERG current change (%, negative = inhibition) at 10uM” value was -16.4%.
For `Cc1ccc(CC(=O)N2CCN(C(=O)c3ccco3)CC2)cc1`, the “hERG current change (%, negative = inhibition) at 10uM” value was -7.76%.
In the case of `CCCCCC(O)(c1ccccc1)C(CN1CCOCC1)c1ccccc1.Cl` (stereo not shown), the “hERG current change (%, negative = inhibition) at 10uM” value is reported as -11.3%.
For `Cc1ccc(-c2csc(NC(CO)c3nc4ccccc4n3CCOCCO)n2)cc1` (stereo not shown), the “hERG current change (%, negative = inhibition) at 10uM” value was -47.3%.
With `Cc1ccc(CNC(=O)C2CCCN2S(=O)(=O)c2ccc3c(c2)C(C)(C)C(=O)N3C)cc1` (stereo not shown) the “hERG current change (%, negative = inhibition) at 10uM” value was 0.556%.
With `O=C(CCS(=O)(=O)c1ccccc1)N1CCN(c2ccccc2F)CC1` the “hERG current change (%, negative = inhibition) at 10uM” value was -3.39%.
In the case of `O=C(NC1CCCC1)c1cc(-c2ccc(Cl)cc2Cl)on1`, the “hERG current change (%, negative = inhibition) at 10uM” value is reported as 7.16%.
In the case of `CC(=O)Nc1cccc(Oc2ccc3c(c2)C(=O)NC3=O)c1`, the “hERG current change (%, negative = inhibition) at 10uM” value is reported as 10.1%.
For `O=C(Nc1ccccc1N1CCOCC1)C1CCN(S(=O)(=O)c2ccc(Cl)cc2)CC1`, the “hERG current change (%, negative = inhibition) at 10uM” value was -34.8%.
`Cn1c(=O)cc(OCCCC(=O)NCc2cccnc2)c2ccccc21` was tested, and the “hERG current change (%, negative = inhibition) at 10uM” value was 2.77%.
In the case of `COc1cccc(N2CCN(S(=O)(=O)c3ccc4c(c3)NC(=O)C(C)C(=O)N4)CC2)c1` (stereo not shown), the “hERG current change (%, negative = inhibition) at 10uM” value is reported as -4.46%.
In the case of `CCC1(C)Cc2c(sc3nc(SC)nc(NCCN(C)C)c23)CO1` (stereo not shown), the “hERG current change (%, negative = inhibition) at 10uM” value is reported as -42.9%.
For `Cc1ccc(-n2ncc3c(N4CCN(c5ccccc5)CC4)ncnc32)c(C)c1`, the “hERG current change (%, negative = inhibition) at 10uM” value was -2%.
With `CCCCCCCOC(=O)c1nc(Cl)c(Cl)c(N)c1Cl` the “hERG current change (%, negative = inhibition) at 10uM” value was -4.56%.
`COc1ccc2c(C)cc(SCC(=O)N3CCOCC3)nc2c1` was tested, and the “hERG current change (%, negative = inhibition) at 10uM” value was -5.29%.
In the case of `CCN(CC(=O)Nc1cc(Cl)ccc1-n1cncn1)Cc1nc2ccccc2c(=O)[nH]1`, the “hERG current change (%, negative = inhibition) at 10uM” value is reported as -60.3%.
In the case of `COc1ccccc1N(CC(=O)N(c1ccccc1)C(C)C)S(=O)(=O)c1cccs1`, the “hERG current change (%, negative = inhibition) at 10uM” value is reported as -22.8%.
`Br.Cc1ccc(Cn2c(=N)n(CC(=O)c3ccccc3)c3ccccc32)cc1` was tested, and the “hERG current change (%, negative = inhibition) at 10uM” value was -72.2%.
In the case of `COc1cc(C(C)=O)ccc1OCC(=O)N1CCc2ccccc2C1`, the “hERG current change (%, negative = inhibition) at 10uM” value is reported as -9.57%.
`COc1cccc(OC)c1CC1SC(=O)NC1=O` (stereo not shown) was tested, and the “hERG current change (%, negative = inhibition) at 10uM” value was -1.06%.
For `CC(CCc1ccccc1)NC(=O)CNC(=O)COc1ccccc1` (stereo not shown), the “hERG current change (%, negative = inhibition) at 10uM” value was -0.873%.
For `O=C(Nc1c(F)cc(F)cc1Br)c1cc2nc(C(F)F)cc(C(F)F)n2n1`, the “hERG current change (%, negative = inhibition) at 10uM” value was -1.51%.
In the case of `O=C(COC(=O)c1ccccc1SCC(=O)N1CCCC1)Nc1ccccc1OC(F)F`, the “hERG current change (%, negative = inhibition) at 10uM” value is reported as -24.6%.
In the case of `Br.Brc1ccc(-c2csc(NNC3=NCCCCC3)n2)cc1`, the “hERG current change (%, negative = inhibition) at 10uM” value is reported as 0.146%.
With `Cc1ccc(Sc2c(C)nn(C(=O)c3cccc(S(=O)(=O)N4CCOCC4)c3)c2C)cc1` the “hERG current change (%, negative = inhibition) at 10uM” value was -6.3%.
With `Clc1ccc(N2CCN(Cc3ccco3)CC2)cc1` the “hERG current change (%, negative = inhibition) at 10uM” value was -14.2%.
For `CCn1ccnc1C(O)(c1ccccc1)c1ccccc1`, the “hERG current change (%, negative = inhibition) at 10uM” value was -6.51%.
`CCN1CCN(C(=O)COc2ccc(S(=O)(=O)N3CCOCC3)cc2Cl)CC1` was tested, and the “hERG current change (%, negative = inhibition) at 10uM” value was 3.13%.
`Cc1nn(-c2ccccc2)c2[nH]c(=O)c(CNCC3CCCO3)cc12` (stereo not shown) was tested, and the “hERG current change (%, negative = inhibition) at 10uM” value was -1.43%.
With `O=C(NCCc1ccc(O)cc1)c1ccc(Cl)cc1` the “hERG current change (%, negative = inhibition) at 10uM” value was -12.8%.
